# Assay results: the supplement of paper PMC8728848
# The list shows a part of the results.
# B1: Blon2468mut (Bifidobacterium longum) (protein)
# chain: MTFIKQMMPRYVASMTAGIVAAAMAATCAFAPVANADAVSPTQETIQSTGRHFMVYYRAWRDVTMKGVNTDLPDDNWISMYDIPYGVDVVNIFSYVPSGQEEQAQPFYDKLKSDYAPYLHSRGIKLVRGIDYTGVAVNGFRTFMKEQNKTESEATEADYDAYAKQVIDKYMISVGLDGLDIDMQAHPNDADVKISDNVIRALSKHIGPKSAKPDTTMFLYDTNGSYLNPFKNVAECFDYVAYQQYGSSSDRTARAAADYQPYIGNEFVPGLTFPEEGDMNNRWYDATEPYEESHFYQVASYVREHNLGGMFVYALDRDGRNYDEDLRRIVPSNLLWTKTAIAESEGMALDTAKTAANHYLDRMSLRQVIDDNAASADKARDMVGKAANLYETNKAVLGGDYGEGFSNTYDPTLEAGLLGIDISVLQQQIDKSSEIIGADTAESDAKTALRMARDAAIDGLTGKIYTADQVSAWSQALKAALDATVPVPTPDSTDQNGNRDKVTNHKVQGQPKQLSATGISTDIIVAVGVTLAIAGVALSLSRKLS
# Columns and labels:
# Assay in all cases: glycan array binding signal (z-score within array); higher = stronger binding
# Details in all cases: glycan notation: IUPAC condensed, linker removed
# Neu5Ac(a2-8)Neu5Ac = target: Neu5Ac(a2-8)Neu5Ac
# Procedure, shortened: (§1)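 Glycan array data came from 3228 arrays in the Consortium for Functional Glycomics database, and only arrays with an available protein sequence were kept. Glycan names were put into IUPAC-condensed notation, and columns mapping to the same glycan were averaged. The binding signal is a within-array Z-score, averaged across arrays of one protein sequence run at different concentrations or buffers and across linkers. A negative Z-score can be read as non-binding.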
# [1] = target: Neu5Ac(a2-8)Neu5Ac(a2-3)Gal(b1-3)GalNAc(b1-4)[Neu5Ac(a2-3)]Gal(b1-4)Glc
# Procedure, shortened: as §1
# [2] = target: Neu5Ac(a2-8)Neu5Ac(a2-3)Gal(b1-3)GalNAc(b1-4)[Neu5Ac(a2-8)Neu5Ac(a2-3)]Gal(b1-4)Glc
# Procedure, shortened: as §1
# [3] = target: Neu5Ac(a2-8)Neu5Ac(a2-3)Gal(b1-4)Glc
# Procedure, shortened: as §1
# [4] = target: Neu5Ac(a2-8)Neu5Ac(a2-3)Gal(b1-4)GlcNAc
# Procedure, shortened: as §1
# [5] = target: Neu5Ac(a2-8)Neu5Ac(a2-3)[Gal(b1-3)GalNAc(b1-4)]Gal(b1-4)Glc
# Procedure, shortened: as §1
# [6] = target: Neu5Ac(a2-8)Neu5Ac(a2-3)[GalNAc(b1-4)]Gal(b1-4)Glc
# Procedure, shortened: as §1
# [7] = target: Neu5Ac(a2-8)Neu5Ac(a2-8)Neu5Ac
# Procedure, shortened: as §1
# [8] = target: Neu5Ac(a2-8)Neu5Ac(a2-8)Neu5Ac(a2-3)Gal(b1-4)Glc
# Procedure, shortened: as §1
# [9] = target: Neu5Ac(a2-8)Neu5Ac(a2-8)Neu5Ac(a2-3)[Gal(b1-3)GalNAc(b1-4)]Gal(b1-4)Glc
# Procedure, shortened: as §1
# [10] = target: Neu5Ac(a2-8)Neu5Ac(a2-8)Neu5Ac(a2-3)[GalNAc(b1-4)]Gal(b1-4)Glc
# Procedure, shortened: as §1
# [11] = target: Neu5Ac(a2-8)Neu5Ac(a2-8)Neu5Ac(a2-8)Neu5Ac(a2-3)[GalNAc(b1-4)]Gal(b1-4)Glc
# Procedure, shortened: as §1
# [12] = target: Neu5Ac(a2-8)Neu5Gc(a2-3)Gal(b1-4)GlcNAc
# Procedure, shortened: as §1
# [13] = target: Neu5Ac(b2-6)Gal(b1-4)GlcNAc
# Procedure, shortened: as §1
# Neu5Ac(b2-6)GalNAc = target: Neu5Ac(b2-6)GalNAc
# Procedure, shortened: as §1
# [14] = target: Neu5Ac9Ac(a2-3)Gal(b1-4)GlcNAc
# Procedure, shortened: as §1
# [15] = target: Neu5Ac9Ac(a2-6)Gal(b1-4)GlcNAc
# Procedure, shortened: as §1
# [16] = target: Neu5Gc(a2-3)Gal(b1-3)GlcNAc
# Procedure, shortened: as §1
# [17] = target: Neu5Gc(a2-3)Gal(b1-3)[Fuc(a1-4)]GlcNAc
# Procedure, shortened: as §1
# Neu5Gc(a2-3)Gal(b1-4)Glc = target: Neu5Gc(a2-3)Gal(b1-4)Glc
# Procedure, shortened: as §1
# [18] = target: Neu5Gc(a2-3)Gal(b1-4)GlcNAc
# Procedure, shortened: as §1
# [19] = target: Neu5Gc(a2-3)Gal(b1-4)GlcNAc(b1-3)Gal(b1-4)GlcNAc(b1-2)Man(a1-3)[Neu5Gc(a2-3)Gal(b1-4)GlcNAc(b1-3)Gal(b1-4)GlcNAc(b1-2)Man(a1-6)]Man(b1-4)GlcNAc(b1-4)GlcNAc
# Procedure, shortened: as §1
# [20] = target: Neu5Gc(a2-3)Gal(b1-4)[Fuc(a1-3)]GlcNAc
# Procedure, shortened: as §1
# [21] = target: Neu5Gc(a2-6)Gal(b1-4)GlcNAc
# Procedure, shortened: as §1
# Neu5Gc(a2-6)GalNAc = target: Neu5Gc(a2-6)GalNAc
# Procedure, shortened: as §1
# [22] = target: Neu5Gc(a2-8)Neu5Ac(a2-3)Gal(b1-4)GlcNAc
# Procedure, shortened: as §1
# [23] = target: Neu5Gc(a2-8)Neu5Gc(a2-3)Gal(b1-4)GlcNAc
# Procedure, shortened: as §1
# [24] = target: Neu5Gc(a2-8)Neu5Gc(a2-3)Gal(b1-4)GlcNAc(b1-3)Gal(b1-4)GlcNAc
# Procedure, shortened: as §1
# [25] = target: Neu5Gc(a2-8)Neu5Gc(a2-6)Gal(b1-4)GlcNAc
# Procedure, shortened: as §1
# [26] = target: Neu5Gc(b2-6)Gal(b1-4)GlcNAc
# Procedure, shortened: as §1
binder,measurement,setting,value
B1,glycan array binding signal (z-score),Neu5Ac(a2-8)Neu5Ac,-0.066
same,glycan array binding signal (z-score),[1],-0.065
same,glycan array binding signal (z-score),[2],-0.052
same,glycan array binding signal (z-score),[3],-0.061
same,glycan array binding signal (z-score),[4],-0.079
same,glycan array binding signal (z-score),[5],-0.074
same,glycan array binding signal (z-score),[6],-0.07
same,glycan array binding signal (z-score),[7],-0.073
same,glycan array binding signal (z-score),[8],-0.088
same,glycan array binding signal (z-score),[9],-0.075
same,glycan array binding signal (z-score),[10],-0.067
same,glycan array binding signal (z-score),[11],-0.085
same,glycan array binding signal (z-score),[12],-0.08
same,glycan array binding signal (z-score),[13],-0.06
same,glycan array binding signal (z-score),Neu5Ac(b2-6)GalNAc,-0.049
same,glycan array binding signal (z-score),[14],-0.099
same,glycan array binding signal (z-score),[15],-0.076
same,glycan array binding signal (z-score),[16],-0.059
same,glycan array binding signal (z-score),[17],-0.057
same,glycan array binding signal (z-score),Neu5Gc(a2-3)Gal(b1-4)Glc,-0.056
same,glycan array binding signal (z-score),[18],-0.093
same,glycan array binding signal (z-score),[19],-0.066
same,glycan array binding signal (z-score),[20],-0.082
same,glycan array binding signal (z-score),[21],-0.061
same,glycan array binding signal (z-score),Neu5Gc(a2-6)GalNAc,-0.055
same,glycan array binding signal (z-score),[22],-0.06
same,glycan array binding signal (z-score),[23],-0.059
same,glycan array binding signal (z-score),[24],-0.053
same,glycan array binding signal (z-score),[25],-0.08
same,glycan array binding signal (z-score),[26],-0.052
